Assay results reported in FireProtDB (doi:10.1021/bi0524520).

Conditions: Homo sapiens, pH 7.4, Thermal, DSC, Phosphate 7 mM, reversible: Yes

## Insulin wild type (letters omitted)
4H3N 10 mM
  unfolding enthalpy (calorimetric): 57.6 kcal/mol
  unfolding enthalpy (van 't Hoff): 381 kcal/mol
KSCN 10 mM
  unfolding enthalpy (calorimetric): 61.7 kcal/mol
  unfolding enthalpy (van 't Hoff): 370 kcal/mol
KSCN
  unfolding enthalpy (calorimetric): 68.8 kcal/mol
  unfolding enthalpy (van 't Hoff): 481 kcal/mol
NaCl 10 mM
  unfolding enthalpy (calorimetric): 55.2 kcal/mol
  unfolding enthalpy (van 't Hoff): 373 kcal/mol
PABA 10 mM
  unfolding enthalpy (calorimetric): 58.1 kcal/mol
  unfolding enthalpy (van 't Hoff): 380 kcal/mol
